In the supplement of paper PMC4604168 (melanoma cell lines) one finds cell count data, which are given here for ten compounds.

This is one part of the list. Repeats are few or missing, and single values can be far off.

Among the test systems are MZ2-MEL; MeWo; RPMI7951; RVH-421; SkMel28; SkMel2; SkMel30; SkMel5; UACC257; UACC62.
What all share (experiment): cell count relative to DMSO control; melanoma cells; higher = more viable cells
Holding throughout (settings): library dose: low library concentration; 72 h
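Also: cell number obtained by counting DAPI-stained nuclei in high-throughput microscope images with image analysis software, screen run in 1,536-well plates.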

In the case of `CNC(=O)c1cc(Oc2ccc(NC(=O)Nc3ccc(Cl)c(C(F)(F)F)c3)cc2)ccn1` [sorafenib] + Oc1nc(-c2ccc(C(F)(F)F)cc2)nc2c1CSCC2 [XAV939] (first compound 0.4 µM, partner dose 2 µM), the cell count in the assay on MZ2-MEL amounted to 96.2%; in the assay with MeWo it was 94.5%; in the assay on RPMI7951, 86.4%; with RVH-421 it was 104%; with SkMel28 it was 101%; in the assay with SkMel2, 111%. Moreover, the cell count with SkMel30 amounted to 104%; in the assay on SkMel5, 89.1%; with UACC257 it was 76.7%; with UACC62, 106%.

`CNC(=O)c1cc(Oc2ccc(NC(=O)Nc3ccc(Cl)c(C(F)(F)F)c3)cc2)ccn1` [sorafenib] + CO[C@@H]1[C@H](N(C)C(=O)c2ccccc2)C[C@H]2O[C@]1(C)n1c3ccccc3c3c4c(c5c6ccccc6n2c5c31)C(=O)NC4 [Midostaurin] (first compound 0.4 µM, partner dose 0.08 µM): the cell count in the assay with MZ2-MEL was 94.2%; in the assay on MeWo, 79%; with RPMI7951, 58.2%; in the assay on RVH-421, 81.3%; in the assay with SkMel28, 92.2%; in the assay with SkMel2, 83.7%. Moreover, the cell count in the assay with SkMel30 is 92.3%; in the assay on SkMel5, 72.6%; in the assay with UACC257 it was 55.4%; in the assay on UACC62, 77.8%.

As for `C[C@@H](Oc1cc(-c2cnn(C3CCNCC3)c2)cnc1N)c1c(Cl)ccc(F)c1Cl` [Crizotinib] + CC1(C)NC(=O)N(c2ccc([N+](=O)[O-])c(C(F)(F)F)c2)C1=O [nilutamide] (first compound 0.2 µM, partner dose 1 µM), the cell count worked out at 106% in the assay on MZ2-MEL; 90.4% in the assay on MeWo; 117% with RPMI7951; 96% in the assay with RVH-421; 79.1% in the assay with SkMel28; 99.7% in the assay with SkMel2. Besides, the cell count was found to be 96.8% in the assay on SkMel30, 87.9% with SkMel5, 82% with UACC257 and 87% in the assay with UACC62.

For `C[C@@H](Oc1cc(-c2cnn(C3CCNCC3)c2)cnc1N)c1c(Cl)ccc(F)c1Cl` [Crizotinib] + CCc1ccc(CCOc2ccc(CC3SC(=O)NC3=O)cc2)nc1 [pioglitazone] (first compound 0.2 µM, partner dose 2 µM), the cell count was 102% in the assay on MZ2-MEL; 107% in the assay with MeWo; 102% in the assay with RPMI7951; 94.6% in the assay with RVH-421; 88.4% with SkMel28; 90.5% with SkMel2. The cell count was found to be 95.6% in the assay with SkMel30, 95.5% in the assay with SkMel5, 104% with UACC257 and 103% in the assay with UACC62.

Consider `C=CCNC1=C2C[C@@H](C)C[C@H](OC)[C@H](O)[C@@H](C)/C=C(\C)[C@H](OC(N)=O)[C@@H](OC)/C=C\C=C(/C)C(=O)NC(=CC1=O)C2=O` [Tanespimycin] + COc1cc2c(Oc3ccc4[nH]c(C)cc4c3F)ncnc2cc1OCCCN1CCCC1 [cediranib] (first compound 0.002 µM, partner dose 0.4 µM), for which the cell count in the assay with MZ2-MEL is 103%; in the assay with MeWo, 88.5%; in the assay with RPMI7951, 116%; in the assay on RVH-421 it was 96.5%; in the assay on SkMel28 it was 94.4%; with SkMel2 it was 93.1%. For the same compound, the cell count in the assay with SkMel30 amounted to 109%; in the assay with SkMel5, 102%; in the assay on UACC257 it was 122%; in the assay with UACC62, 91.3%.

On to `C=CCNC1=C2C[C@@H](C)C[C@H](OC)[C@H](O)[C@@H](C)/C=C(\C)[C@H](OC(N)=O)[C@@H](OC)/C=C\C=C(/C)C(=O)NC(=CC1=O)C2=O` [Tanespimycin] + CN(C)S(=O)(=O)c1ccc2c(c1)/C(=C/c1cc3c([nH]1)CCCC3)C(=O)N2 [SU6656] (first compound 0.002 µM, partner dose 0.4 µM), for which the cell count in the assay on MZ2-MEL was found to be 97.6%; in the assay on MeWo, 85.9%; in the assay on RPMI7951 it was 67.5%; with RVH-421, 105%; in the assay with SkMel28 it was 69.9%; in the assay with SkMel2, 107%. Further, the cell count in the assay on SkMel30 amounted to 91.3%; in the assay with SkMel5, 86.7%; with UACC257, 94.5%; in the assay with UACC62, 77.6%.

For `C=CCNC1=C2C[C@@H](C)C[C@H](OC)[C@H](O)[C@@H](C)/C=C(\C)[C@H](OC(N)=O)[C@@H](OC)/C=C\C=C(/C)C(=O)NC(=CC1=O)C2=O` [Tanespimycin] + NC(=O)Nc1cc(-c2cccc(F)c2)sc1C(=O)N[C@H]1CCCNC1 [AZD7762] (first compound 0.002 µM, partner dose 0.02 µM), the cell count is 106% with MZ2-MEL; 107% with MeWo; 81.2% in the assay with RPMI7951; 112% in the assay with RVH-421; 125% in the assay with SkMel28; 110% with SkMel2. In addition, the cell count with SkMel30 was 111%; in the assay with SkMel5, 83.8%; in the assay on UACC257 it was 108%; with UACC62, 85.1%.

On to `C=CCNC1=C2C[C@@H](C)C[C@H](OC)[C@H](O)[C@@H](C)/C=C(\C)[C@H](OC(N)=O)[C@@H](OC)/C=C\C=C(/C)C(=O)NC(=CC1=O)C2=O` [Tanespimycin] + Cc1cc(N2CCOCC2)cc2[nH]c(-c3c(NC[C@@H](O)c4cccc(Cl)c4)cc[nH]c3=O)nc12 [BMS536924] (first compound 0.002 µM, partner dose 0.2 µM), for which the cell count in the assay with MZ2-MEL worked out at 101%; with MeWo it was 80.7%; in the assay on RPMI7951 it was 85.8%; in the assay with RVH-421, 84.1%; with SkMel28, 100%; in the assay on SkMel2, 82.4%. Besides, the cell count is 98.4% with SkMel30, 101% in the assay on SkMel5, 88.7% in the assay with UACC257 and 98.4% in the assay on UACC62.

Consider `C[C@@H](Oc1cc(-c2cnn(C3CCNCC3)c2)cnc1N)c1c(Cl)ccc(F)c1Cl` [Crizotinib] + CC(C)CCN1c2nc(Nc3cc(F)c(O)c(F)c3)ncc2N(C)C(=O)C1C [BID1870] (first compound 0.2 µM, partner dose 0.2 µM), for which the cell count with MZ2-MEL was 103%; with MeWo, 97.9%; in the assay on RPMI7951, 91.5%; with RVH-421, 116%; in the assay with SkMel28, 88.7%; with SkMel2, 94.8%. The cell count in the assay on SkMel30 is 122%; in the assay with SkMel5, 97.8%; in the assay with UACC257 it was 75.2%; in the assay on UACC62, 77.7%.

Turning to `CN1CCN(c2ccc3nc(-c4c(N)c5c(F)cccc5[nH]c4=O)[nH]c3c2)CC1` [Dovitinib] + O=C(Nc1cccc(Cl)c1)Nc1ncc(CCNc2ncnc3ccsc23)s1 [SNS314] (first compound 0.1 µM, partner dose 0.0008 µM), the cell count in the assay with MZ2-MEL was 87.6%; in the assay on MeWo, 97.8%; with RPMI7951, 114%; in the assay on RVH-421 it was 90%; in the assay on SkMel28 it was 69.6%; in the assay on SkMel2, 96.2%. For the same compound, the cell count is 59.9% with SkMel30, 99.9% with SkMel5, 71.5% with UACC257 and 89.3% in the assay with UACC62.
